From PubChem BioAssay AID1508642 (National Center for Advancing Translational Sciences (NCATS), 2021) come the findings set out here.

SMILES strings stand for the structures. The whole screen tested about 43,000 compounds, of which about 200 (0.47%) were called active. Another 12% or so got no clear call; they are omitted. Calls follow the shape of the dose curve; as a rule, active = well fitted cell-killing curve with a large enough effect; inconclusive = small, poorly fitted or top-dose-only effect, or effect the other way; inactive = flat fitted curve, though single readings scatter. The list shows a part of the results.
% is scaled to controls: 0 for no effect and ±100 for the full control effect.

The nature of the assay: Cell viability qHTS assay in S16 Pmp22-F2sN cells. Also: nearly all actives have a fitted effect of over 65% in size. The note with it: S16 Pmp22-F2sN Schwann cells viability, CellTiter-Glo, 24 h; series mostly up to 57.5 µM; activity change, negative = cytotoxicity: at the top concentration. The gist of the method:
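S16 Pmp22-F2sN Schwann cells (500-1,000/well) in phenol-red-free DMEM with 10% FBS received 23 nL compound by pin tool for 24 h at 37 °C. Viability was then read as CellTiter-Glo luminescence after 15 min at room temperature.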
On the technique in general: In qHTS, concentration-response curves come from the screen itself.
On to `Cc1ccc(CCNC(=O)Cn2c(-c3cccs3)cc3ccccc32)cc1`, for which the “activity change, negative = cytotoxicity” value is inactive: -4.4%.
To `COc1ccc(Cl)cc1S(=O)(=O)Nc1ccc2[nH]c(=O)[nH]c2c1` belongs inactive: -16.7%.
Consider `Cc1ccc(N2CC(NC(=O)c3ccccc3C(F)(F)F)CC2=O)cc1C` (stereo unspecified), for which the “activity change, negative = cytotoxicity” value is inactive: 7.21%.
The figure for `CCc1ccc(S(=O)(=O)c2cn(Cc3ccccc3)c3cc(N4CCCC4)c(F)cc3c2=O)cc1` is inactive: 6.62%; for `Clc1ccc2c(c1)-n1cc(-c3ccccc3)nc1CO2` it is inactive: 21.2%.
To `COc1ccc(NC(=O)CSc2oc(-c3cccs3)nc2S(=O)(=O)c2ccccc2)c(OC)c1` belongs inactive: 6.39%; to `Cc1ccc(Cl)cc1N1CCN(C(=O)CCS(=O)(=O)c2cc(Br)cc3c2N(C(=O)C2CC2)CC3)CC1`, inactive: -22.1%; to `COc1cccc(CNC(=O)C2CCCN(S(=O)(=O)N(C)c3ccc(F)cc3)C2)c1OC` (stereo unspecified), inactive: 3.24%.
The figure for `Cc1cccc(NC(=O)CSC2=Nc3ccccc3C3=NC(CC(=O)NCc4cccs4)C(=O)N23)c1` (stereo unspecified) is inactive: -2.4%; for `COc1ccc(C(=O)NCCn2cc(SCc3ccc(C(F)(F)F)cc3)c3ccccc32)cc1OC` it is inactive: -17.9%.
For the molecule `COCCn1c(C)cc(O)c(C(c2ccccc2OC)N2CCN(c3ccccc3)CC2)c1=O` (stereo unspecified), the “activity change, negative = cytotoxicity” value was inactive: -12.6%.
With `COc1ccccc1/C=C/c1nc(C#N)c(NC2CCCCC2)o1`, the “activity change, negative = cytotoxicity” value is inactive: -22.5%.
Take `COc1ccc(CNC(=O)CCCn2nc(C)n3c(cc4sccc43)c2=O)cc1`: the “activity change, negative = cytotoxicity” value was inactive: 9.73%.
Regarding `CCn1c(CNC(=O)c2ccc(OC)cc2)nnc1SCC(=O)Nc1cc(C)ccc1C`, the “activity change, negative = cytotoxicity” value is inactive: 14%.
Take `Cn1c(/C(C#N)=C/c2ccccc2Br)nc2ccccc21`: the “activity change, negative = cytotoxicity” value is inactive: -29.3%.
Turning to `Cc1ccc(C)c(NC(=O)C2CCN(S(=O)(=O)c3c(C)noc3/C=C/c3cccs3)CC2)c1`, the “activity change, negative = cytotoxicity” value is inactive: 2.54%.
With `Cc1sc2c(c1C)c(=O)n(CCc1ccccc1)c(=O)n2Cc1ccc(C(C)(C)C)cc1`, the “activity change, negative = cytotoxicity” value is inactive: 11.5%.
As for `COc1ccc(Cl)cc1NC(=O)CSc1nccn1-c1ccc(Cl)cc1`, the “activity change, negative = cytotoxicity” value was inactive: -3.71%.
The figure for `CCOCN(C(=O)Cn1c(COC)nc2ccccc21)c1c(C)cccc1CC` is inactive: 8.9%; for `COc1ccc(S(=O)(=O)N2Cc3ccccc3CC2C(=O)Nc2cc(Cl)ccc2Cl)cc1` (stereo unspecified) it is inactive: -4.01%.
The figure for `COc1ccccc1C(=O)NCc1nc2cccnc2n1Cc1ccc(F)cc1` is inactive: -0.217%; for `CCc1nn(CC(=O)NCCc2ccc(SC)cc2)c(=O)c2cc3sccc3n12` it is inactive: 7.23%; for `CCCc1cc(=O)n2[nH]c(NCc3c(F)cccc3Cl)nc2n1` it is inactive: -5.56%.
To `Cc1ccc(C)c(N2CCN(C(=O)c3cc(C)nc4c3c(C)nn4-c3ccccc3)CC2)c1` belongs inactive: 5.5%; to `COc1cc(CN(C(=O)COc2ccc(F)cc2)c2ccccn2)cc(OC)c1OC`, inactive: 0.893%; to `CCOc1ccc(OCC(=O)Nc2ccc(S(=O)(=O)Nc3cc(C)on3)cc2)cc1`, inactive: 1.31%.
As to `COc1cc(NC(=O)CCN2CCN(CCO)CC2)cc(OC)c1`, the “activity change, negative = cytotoxicity” value is inactive: 3.96%.
The figure for `Cc1ccc(NC(=O)c2ccc(=O)n(CC(=O)Nc3ccccc3)n2)cc1` is inactive: 3.42%; for `Cn1c(=O)c2sccc2n2c(CCCC(=O)Nc3ccc(Oc4ccccc4)cc3)nnc12` it is inactive: -22.4%.
Take `CCOC(=O)COc1ccc(-c2nnn(CC(=O)Nc3ccccc3)n2)cc1`: the “activity change, negative = cytotoxicity” value is inactive: 8.97%.
The figure for `COc1ccc(N2CCN(S(=O)(=O)c3ccc4c(c3)C(C(C)C)C(=O)N4)CC2)cc1` (stereo unspecified) is inactive: -24.7%.
The figure for `COc1ccc(CNC(=O)CCc2nnc3n(C)c(=O)c4sccc4n23)cc1` is inactive: 17.4%; for `COC(=O)C1=C(C)N(C(C)C)C(=O)C1(NC(=O)c1ccccc1OC)C(F)(F)F` (stereo unspecified) it is inactive: 4.72%.
As to `COc1ccccc1CNC(=O)C(=O)NCC(c1ccco1)S(=O)(=O)c1ccc(C)cc1` (stereo unspecified), the “activity change, negative = cytotoxicity” value was inactive: -23.8%.
For `Cc1ccccc1CCNC(=O)c1ccc(Cn2c(=O)c3cccn3c3cccnc32)cc1`, the “activity change, negative = cytotoxicity” value was inactive: -3.06%.
To `CCc1ccc(NC(=O)c2cc(S(=O)(=O)N3CCCC(C)C3)cn2C)cc1` (stereo unspecified) belongs inactive: 22.6%.
Turning to `CCOc1cc(-c2nc(-c3ccc(-c4ccccc4)nc3OCC)no2)cc(OCC)c1OCC`, the “activity change, negative = cytotoxicity” value was inactive: -0.255%.
To `COc1cc(OC)c(NC(=O)c2cnn(-c3ccccc3)c2-n2cccc2)cc1Cl` belongs inactive: 2.99%; to `O=C(NCc1ccccc1Cl)c1ccccc1NC(=O)c1nsc2ccccc12`, inactive: -1.04%; to `O=C(CSc1nccn1Cc1ccc(Cl)cc1)Nc1nc2ccccc2s1`, inactive: 9.7%.
The figure for `CCC(=O)N1CCc2cc(Br)cc(S(=O)(=O)Nc3ccccc3C(=O)OC)c21` is inactive: 5.24%.
The figure for `CCOC(=O)N1CCN(C(=O)c2ccc3c(c2)N(Cc2ccccc2F)C(=O)c2ccccc2S3(=O)=O)CC1` is inactive: 7.37%; for `CCOc1ccc(CNC(=O)C2CCN(C(=O)c3ccc(-n4ccc5ccccc54)s3)CC2)cc1` it is inactive: 2.04%.
On to `CCOc1ccc(Nc2cc(C(=O)NCc3ccccc3Cl)c3ccccc3n2)cc1`, for which the “activity change, negative = cytotoxicity” value was inactive: 4.24%.
Turning to `O=C(Nc1ccc(Br)c(Cl)c1)c1ccc(C(=O)Nc2ccc(Br)c(Cl)c2)cc1`, the “activity change, negative = cytotoxicity” value is inactive: -1.08%.
To `CCc1ccc(NC(=O)CSc2nc3c(c(=O)[nH]2)CN(Cc2ccc4c(c2)OCO4)CC3)cc1` belongs inactive: 3.89%; to `O=C(COc1ccccc1)NCC(c1ccc(Cl)cc1)N1CCCCC1` (stereo unspecified), inactive: -0.136%.
The figure for `Cc1ccc(C)c(N2CCN(S(=O)(=O)c3c(C(=O)N4CCC(C)CC4)c(C)n(C)c3C)CC2)c1` is inactive: -8.56%; for `O=C(CCCc1ccccc1)NC1CC(=O)N(c2cccc(F)c2)C1` (stereo unspecified) it is inactive: 1.25%; for `CC1CCCCN1CCCNC(=O)CN1C(=O)c2cccnc2Oc2ccc(Cl)cc21` (stereo unspecified) it is inactive: 13.8%.
Regarding `CCOc1ccccc1C1C(C(=O)Nc2ccccc2)=C(C)Nc2nc(SCC(=O)c3ccc(C)cc3)nn21` (stereo unspecified), the “activity change, negative = cytotoxicity” value is inactive: -0.313%.
To `CN(C(=O)CSc1nc(-c2ccccc2)no1)c1ccc(F)cc1` belongs inactive: 23.4%; to `COc1ccc(C(=O)c2sc3nc4c(c(C(F)(F)F)c3c2N)CN(C(C)=O)CC4)cc1OC`, inactive: -3.8%.
With `O=C(COc1ccccc1)Nc1nnc(S(=O)(=O)Nc2ccccc2)s1`, the “activity change, negative = cytotoxicity” value is inactive: -4.61%.
For `Cc1ccc(Cl)cc1N1CCN(S(=O)(=O)c2cn(C)c(C)n2)CC1`, the “activity change, negative = cytotoxicity” value is inactive: 13.4%.
To `CCN(Cc1ccccc1)c1ncnc2c1cnn2-c1ccc(F)cc1` belongs inactive: 2.49%; to `CCOc1ccccc1NC(=O)Nc1nnc(N2CCCC(C)C2)s1` (stereo unspecified), inactive: -17.6%.
`O=C(c1ccc(Cl)cc1)N1CCN(CCc2ccncc2)CC1`: the “activity change, negative = cytotoxicity” value was inactive: 16.1%.
Consider `CCc1ccccc1N1C(=O)CN(S(=O)(=O)CC)CC1(C)C(=O)NC1CCCCC1` (stereo unspecified), for which the “activity change, negative = cytotoxicity” value is inactive: 4.22%.
The figure for `CCC(=O)OC1=C(C(C)=O)N(Cc2ccccc2)S(=O)(=O)c2ccccc21` is inactive: 1.87%; for `COc1ccc(C(=O)NCc2ccc3c(c2)CCN3C(C)=O)c(OC)c1` it is inactive: -3.21%; for `Cc1ccccc1NC(=O)C1CCN(S(=O)(=O)c2c(C)noc2/C=C/c2ccco2)CC1` it is inactive: -11.1%.
As to `CCC(=O)N1CCc2cc(CNC(=O)c3cccc(N(C)C)c3)ccc21`, the “activity change, negative = cytotoxicity” value was inactive: 7.05%.
As for `COc1ccc(NC(=O)C2CCCN(c3ncnc4onc(C)c34)C2)cc1OC` (stereo unspecified), the “activity change, negative = cytotoxicity” value was inactive: -3.71%.
As to `COc1ccc(-c2cc(C(=O)N3CCCCC3C)no2)cc1OC` (stereo unspecified), the “activity change, negative = cytotoxicity” value was inactive: -3.49%.
The figure for `CCOc1ccc(OCC)c(NC(=O)c2nnn(CC(=O)Nc3cc(Cl)ccc3OC)c2N)c1` is inactive: 14.3%.
For the molecule `COc1ccc(S(=O)(=O)c2c(O)c(C)cc(NC(=O)c3ccccc3)c2C(C)C)cc1`, the “activity change, negative = cytotoxicity” value was inactive: 16.9%.
As for `Cc1cccc(-c2nnc(SCC(=O)N3CCCCC3)o2)c1`, the “activity change, negative = cytotoxicity” value is inactive: 2.1%.
Consider `O=C(Nc1ccccc1F)c1oc2ccccc2c1NC(=O)c1c(F)cccc1F`, for which the “activity change, negative = cytotoxicity” value was inactive: -1.07%.
To `Cc1cccn2c(=O)cc(COc3cccc(NC(=O)c4cccc(Cl)c4)c3)nc12` belongs inactive: 8.18%; to `CSc1nnc2n(-c3cccc(C)c3)c(=O)c3c4c(sc3n12)CCCC4`, inactive: 13.8%.
To `CCOc1ccc(-c2nnc(SCC(=O)Nc3cc(C)ccc3OC)o2)cc1` belongs inactive: 3.58%; to `CC(C)c1ccc(NC(=O)Cn2c3ncccc3c(=O)n2-c2ccccc2)cc1`, inactive: 9%; to `Cc1c(C(=O)Nc2cccc(-c3nc4ccccc4s3)c2)oc2ccc(F)cc12`, inactive: 7.9%.
In the case of `COc1cc(-c2nc(C(N)=O)c3c(n2)n(-c2cccc(C)c2)c(=O)n3C)cc(OC)c1OC`, the “activity change, negative = cytotoxicity” value was inactive: 2.34%.
The figure for `Cc1ccc(CNC(=O)c2nn(C)c3c2CSc2ccc(C)cc2-3)cc1` is inactive: 2.01%; for `N#Cc1cccc(NC(=O)C2CCN(c3nc(-c4ccc(Cl)cc4)no3)CC2)c1` it is inactive: -0.831%.
To `Cc1ccc(CCNC(=O)CSCc2nc(-c3ccc(C)cc3)oc2C)cc1` belongs inactive: -27%; to `COC(=O)c1ccccc1NC(=O)c1ccc(=O)n(Cc2cccc(C)c2)c1`, inactive: -9.15%; to `COc1ccc(N2C(N)=C(C#N)C(c3cc(CN4CCOCC4)cs3)C3=C2CCCC3=O)cc1` (stereo unspecified), inactive: -3.59%.
As for `Cc1nc2c(C(=O)NCCc3ccc(Cl)cc3)cnn2c(C)c1Cc1ccc(F)cc1`, the “activity change, negative = cytotoxicity” value was inactive: 25.2%.
Regarding `CC(C)NC(=O)C1CCN(C(=O)c2cnn(-c3ccccc3)c2-n2cccc2)CC1`, the “activity change, negative = cytotoxicity” value is inactive: -0.692%.
Regarding `Cc1ccc(NS(=O)(=O)c2ccc3c(c2)C(C(C)C)C(=O)N3)cc1C` (stereo unspecified), the “activity change, negative = cytotoxicity” value is inactive: -24.5%.
To `CC(C)c1ccc(OCC(=O)NCC(c2ccc(Cl)cc2)N2CCOCC2)cc1` (stereo unspecified) belongs inactive: -15.1%; to `CCOC(=O)C1=C(CN2CCN(C)CC2)NC(=O)NC1c1ccc(F)cc1` (stereo unspecified), inactive: 17.4%; to `CCCSc1nc2sc3c(c2c(=O)n1-c1ccc(C)c(Cl)c1)CCN(C(C)=O)C3`, inactive: 27.7%.
On to `CN(C(=O)c1cc2nc(-c3ccc4c(c3)OCO4)cc(C(F)(F)F)n2n1)c1ccc(OC(F)(F)F)cc1`, for which the “activity change, negative = cytotoxicity” value was inactive: 1.97%.
For the molecule `Cn1nc(C(=O)NCCc2ccc(Cl)cc2)c2c1-c1ccccc1SC2`, the “activity change, negative = cytotoxicity” value was inactive: -4.59%.
To `COc1ccccc1N1CCN(C(=O)CSc2nc3ccccc3nc2Cc2ccc(C)cc2)CC1` belongs inactive: 15.4%.
To `COc1cc(NS(=O)(=O)c2cc(Br)cc3c2N(C(=O)C2CC2)CC3)cc(OC)c1` belongs inactive: -18.7%; to `CCS(=O)(=O)c1cccc(C(=O)Nc2ccc(-c3nc4ccccc4s3)c(O)c2)c1`, inactive: 9.24%; to `COc1ccc(-c2csc(-c3c(N)c(C(=O)c4ccccc4)n4ccccc34)n2)cc1OC`, inactive: -25.5%.
To `Cc1ccc(CN2CCN(C3CCN(S(=O)(=O)N(C)C)CC3)C(=O)C2=O)cc1` belongs inactive: 15.7%; to `CC1CCN(C(=O)Cn2c(SCC(=O)Nc3ccc(F)cc3)nc3ccccc32)CC1`, inactive: 8.01%; to `COc1ccc(OC)c(CNC(=O)CSc2c3c(nc4cc(Cl)ccc24)CCCC3)c1`, inactive: -28.2%.
Consider `CCN(CCCNC(=O)c1nn(-c2ccc(OC)c(Cl)c2)c(=O)c2c1c1ccccc1n2C)c1ccccc1`, for which the “activity change, negative = cytotoxicity” value is inactive: 9.9%.
